# Data published in article PMC4336329 (PLoS ONE, 2015).
# Hit rate of the full screen: of about 310,000 compounds, about 14,000 (4.5%) showed an effect of 50% or more. Effects have a minus sign here. The list shows a part of the results.
# Target: human ether-à-go-go-related gene (hERG) potassium channel (human, UniProt Q12809)
# Assay: primary screen, population patch clamp on CHO cells stably expressing hERG
# 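Further: peak tail current of the secondary pulse compared with the same well before compound.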
# human ether-à-go-go-related gene (hERG) potassium channel, sequence (Q12809 whole entry, looked up): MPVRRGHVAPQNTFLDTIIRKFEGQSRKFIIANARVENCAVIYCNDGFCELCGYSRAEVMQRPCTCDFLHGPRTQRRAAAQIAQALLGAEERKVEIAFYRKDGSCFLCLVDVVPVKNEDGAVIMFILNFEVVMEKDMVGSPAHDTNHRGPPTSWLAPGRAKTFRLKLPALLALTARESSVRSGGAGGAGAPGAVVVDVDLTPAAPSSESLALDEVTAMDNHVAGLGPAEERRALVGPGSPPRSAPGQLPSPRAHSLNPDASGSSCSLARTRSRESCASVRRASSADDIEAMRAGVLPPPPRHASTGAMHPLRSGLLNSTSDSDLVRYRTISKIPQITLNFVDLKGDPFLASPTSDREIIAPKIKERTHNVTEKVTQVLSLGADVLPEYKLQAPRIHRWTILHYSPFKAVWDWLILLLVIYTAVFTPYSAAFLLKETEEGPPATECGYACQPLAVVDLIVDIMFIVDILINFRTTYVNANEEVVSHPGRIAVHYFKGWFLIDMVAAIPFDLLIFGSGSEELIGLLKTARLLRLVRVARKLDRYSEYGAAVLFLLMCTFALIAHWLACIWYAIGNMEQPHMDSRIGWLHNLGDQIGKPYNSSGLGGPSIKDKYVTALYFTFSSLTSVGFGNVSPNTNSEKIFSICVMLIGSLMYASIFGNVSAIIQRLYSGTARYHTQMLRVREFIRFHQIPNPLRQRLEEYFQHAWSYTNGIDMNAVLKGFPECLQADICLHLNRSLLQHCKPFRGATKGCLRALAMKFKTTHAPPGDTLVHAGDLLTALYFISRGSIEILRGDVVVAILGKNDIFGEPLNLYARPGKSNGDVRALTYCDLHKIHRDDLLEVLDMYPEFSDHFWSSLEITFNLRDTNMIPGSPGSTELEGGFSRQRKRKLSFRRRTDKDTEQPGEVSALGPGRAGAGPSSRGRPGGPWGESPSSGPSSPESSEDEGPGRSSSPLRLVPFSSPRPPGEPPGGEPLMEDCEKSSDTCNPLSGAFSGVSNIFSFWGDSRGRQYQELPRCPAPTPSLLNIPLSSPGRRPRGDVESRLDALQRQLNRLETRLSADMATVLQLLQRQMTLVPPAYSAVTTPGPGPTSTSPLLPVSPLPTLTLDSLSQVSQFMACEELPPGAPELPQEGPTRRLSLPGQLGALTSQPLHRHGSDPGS
row,Compound,"hERG current change (%, negative = inhibition) at 10uM [%]"
1,C#CCOc1c(Cl)cc(/C=C2/C(=O)ON=C2C)cc1OCC,11.4
2,O=C(c1c[nH]c(C(=O)C(Cl)(Cl)Cl)c1)c1c(F)cccc1F,4.2
3,CC(=O)c1cccc(NC(=O)COC(=O)c2cccc(N3C(=O)c4ccccc4C3=O)c2)c1,2.69
4,CCOC(=O)N1CCN(S(=O)(=O)c2cccc3nsnc23)CC1,-3.82
5,CC(=O)Nc1ccc(NC(=O)c2ccnn2C)cc1,2.03
6,COc1ccc(S(=O)(=O)N2CCN(C(=O)c3c(C)nn(-c4ccccc4)c3Cl)CC2)cc1,-19.4
7,C/C(=N\NS(=O)(=O)c1ccccc1)c1ccc2c(c1)OCCO2,2.11
8,NC(=O)c1ccccc1NC(=O)C1CCCO1 (centres unmarked),8.51
9,CCn1c(CSc2ncccn2)nnc1SCC(=O)N1CCCCC1,54.8
10,COc1ccc(/C(N)=N/OC(=O)Cc2cccs2)cc1OC,9.58
11,CC(C)Cn1c(=O)[nH]c(=O)c2c(C(F)(F)F)cc(-c3ccccc3)nc21,8.72
12,Cc1ccc(N2C(=O)CC(Sc3nc4ccccc4o3)C2=O)cc1Cl (centres unmarked),18.9
13,Cc1ccc(S(=O)(=O)N2CC2(C)CCl)cc1 (centres unmarked),11.5
14,Cc1cccc(NC(=O)CN2C(=O)CCS(=O)(=O)c3ccccc32)c1C,3.24
15,Cc1cc(N2CCOCC2)ccc1/C=C1\NC(=O)N(Cc2ccccc2F)C1=O,15.8
16,CNC(=O)NCC12CC3CC(CC(C3)C1)C2,-5.63
17,Cc1nn(C2CCS(=O)(=O)C2)c(C)c1CN(C)C(=O)c1ccc(Cl)cc1 (centres unmarked),-14.9
18,CC(C)C[C@@H](CO)N1CCN(CCCc2ccccc2)CCC1=O,-31.1
19,COC(=O)C1(C(=O)O)Cc2cc([N+](=O)[O-])ccc2N2CCCC21 (centres unmarked),-3.64
20,CCC1CCCCN1S(=O)(=O)c1ccc(S(=O)(=O)N(Cc2cccs2)C2CC2)cc1 (centres unmarked),4.77
21,OCCC1CN(Cc2c(O)ccc3ccccc23)CCN1CCc1ccccc1 (centres unmarked),-27.1
22,CO/N=C/CC(=O)c1ccc(-c2ccccc2)cc1,16.7
23,O=c1c(Cc2ccc(F)cc2)c(O)ccn1Cc1ccc(F)cc1,13.3

row,Compound,"hERG current change (%, negative = inhibition) at 10uM [%]"
1,CCCn1nc(CC(=O)OCC)c2ccccc2c1=O,0.251
2,O=C(O)c1cc(Cl)c2ccccc2c1O,-5.41
3,Cc1ccc(C(=O)NCC(=O)OCC(=O)c2ccc3c(c2)NC(=O)CO3)cc1C,-5.7
4,CC1(C)C2(C#N)C(N)=NC3(OCCO3)C12C#N (centres unmarked),23.4
5,COc1cc(OC)cc(C(=O)Nc2cccc(-c3ccc4nncn4n3)c2)c1,25.1
6,CCOc1cc(CNn2cnnc2)ccc1OCC(=O)NC1CCCCC1,8.74
7,CCOC(=O)c1cc2occc2n1CC(=O)N1CCOCC1,6.95
8,O=C(N/N=C\c1ccc2c(c1)OCO2)c1ccco1,6.5
9,CCOc1ccc(/C=N/NC(=O)NC23CC4CC(CC(C4)C2)C3)cc1O,-10.9
10,C=CCCC(=O)Nc1ccc(Br)cn1,11.3
11,O=C(CNc1cccc2ccccc12)N/N=C/c1ccc[nH]1,10.7
12,COc1ccc(-c2nnc(SCC(=O)c3cccs3)n2-c2ccc(Cl)cc2)cc1,-16.2
13,CC1CCCCN1C(=O)CSc1nc2ncccc2[nH]1 (centres unmarked),13.7
14,O=C(CCCCCN1C(=O)c2ccccc2C1=O)Nc1ccc(F)cc1,-0.382
15,CCn1cc2nc(SCC(=O)Nc3ccccc3F)n(Cc3ccccc3)c(=O)c2n1,-70.6
16,O=C(NCc1ccco1)Nc1ccc(Br)cc1,3.85
17,COC(=O)c1ccccc1NS(C)(=O)=O,17.1
18,Cc1cc(/C=C2/C(=O)N(C)C(=S)N2C)c(C)n1C1CC1,4.03
19,CN(C)c1nc(Oc2ccc(=O)n(-c3ccccc3)n2)nc(N2CCOCC2)n1,9.19
20,Cc1ccc(-n2cccc2/C=N/n2cnnc2)cc1Cl,-12.5
21,Cc1ccc(-c2csc3ncnc(SCC(=O)NCc4ccc5c(c4)OCO5)c23)cc1,-0.903
22,CC(C)Oc1cccc(C(=O)C2CCCN(Cc3cnn(C(C)C)c3)C2)c1 (centres unmarked),-36.3
23,Cc1ccc(S(=O)(=O)Cn2nnnc2C(CC(C)C)N2CCC(C(N)=O)CC2)cc1 (centres unmarked),-12.2

row,Compound,"hERG current change (%, negative = inhibition) at 10uM [%]"
1,CC(=C/c1ccccc1)/C=N/N1CCN(Cc2ccc(C)cc2)CC1,-22.9
2,Cc1cccc(C(=O)OCC(=O)NCc2cccs2)c1,7.82
3,Cc1cccc(C)c1NC1=NC(=S)N(c2ccccc2)C12CCOC(C)(C)C2 (centres unmarked),17.4
4,Cc1nnsc1C(=O)N1CCC(C(=O)c2ccccc2)CC1,3.74
5,CCCCCOc1ccccc1C(=O)NCCC(=O)O,16.7
6,COc1ccc(CNS(=O)(=O)c2cc3c(cc2Cl)NC(=O)CO3)cc1,-24.7
7,Cc1cccc(C(=O)NC2CCN(CC(=O)NCc3ccccc3F)CC2)c1,-33.2
8,COc1ccc2nc(NC(=O)C3CCN(S(=O)(=O)c4cccnc4)CC3)sc2c1,-29.8
9,CCC(=O)NCCc1nc2cc(NC(=O)c3ccco3)ccc2n1C,24.6
10,COc1cccc(CNC(=O)C2CCN(S(=O)(=O)N3CC(C)CC(C)C3)CC2)c1 (centres unmarked),-8.41
11,COc1ccc(OC)c(NC(=O)C2CCN(S(=O)(=O)c3cccs3)CC2)c1,-3.74
12,CC(C)(C)OC(=O)NCc1ccc(CNC(=O)c2nc[nH]c2C(=O)NCc2ccccc2)cc1,2.7
13,COC(=O)CSc1nc2c(c(C3CC=CCC3)c1C#N)CCC2 (centres unmarked),8.72
14,Cc1ccc(CS(=O)(=O)CC(C)(O)c2ccc(Cl)cc2)cc1 (centres unmarked),-9.67
15,CCN(CC)C(=O)C12CC3CC(CC(Cl)(C3)C1)C2,-9.36
16,CCOC(=O)c1c(NC(C)=O)sc2c(OC)cccc12,3.77
17,C/C(=N\NC(=O)c1ccoc1C)c1cccnc1,4.84
18,Cc1ccc(CC2SC(=Nc3ccccc3)N(c3ccccc3)C2=O)cc1 (centres unmarked),3.38
19,COc1ccccc1NCC(=O)NNC(C)C(=O)Nc1cccc(Cl)c1 (centres unmarked),-6
20,Cc1c(OCC(=O)NC(Cc2ccc(Cl)cc2)C(=O)O)ccc2c3c(c(=O)oc12)CCC3 (centres unmarked),-6.21
21,CC(C)=C(NC(=O)c1ccccc1)C(=O)N/N=C/c1ccc(O)cc1,-4.47
22,NC(=O)C(c1ccc(Br)cc1)c1ccc(C(=O)c2ccccc2)cc1 (centres unmarked),-7.84
23,CC(=O)Nc1ccc(NC(=S)NC(=O)c2ccc(-c3ccccc3)cc2)cc1,15.7

row,Compound,"hERG current change (%, negative = inhibition) at 10uM [%]"
1,Cc1ccc(NC(=O)CC2NCCNC2=O)cc1 (centres unmarked),-6.75
2,Clc1ccc(-c2nc3cnccn3c2NC2CCCC2)cc1,-7.75
3,CC(C)CC(O)C1CCN(C(=O)CCc2nnc(-c3ccccc3)o2)CC1 (centres unmarked),-9.35
4,Cc1ccc(OCCn2cc(C#N)c3ccccc32)cc1,-7.95
5,Cc1ccc(C2SCC(=O)N2Cc2ccccc2)cc1 (centres unmarked),-20.9
6,c1csc(CSc2nc3ccccc3s2)c1,7
7,Cc1ccccc1-c1nc(C#N)c(NCc2ccco2)o1,-57.2
8,CCc1ccc2c(CN3CCN(S(=O)(=O)c4cccs4)CC3)cc(=O)oc2c1,-20.2
9,COc1ccc(-c2nnn(CC(=O)NCCc3ccc(OC)c(OC)c3)n2)cc1,18.8
10,Cc1ccc(C)c(-n2c3nc(=O)n(C)c(=O)c-3cc3ccccc32)c1,-2.75
11,Nc1c(C(=O)NCc2ccccc2)nnn1Cc1ccccc1,7.33
12,Cn1c(=O)c2c(ncn2CC(=O)N/N=C/C=C/c2ccccc2)n(C)c1=O,-23.1
13,NS(=O)(=O)c1ccc(NC(=O)COC(=O)CSc2n[nH]c(-c3ccccc3)n2)cc1,12
14,Cc1c(NC(=O)CSc2nccn2C)c(=O)n(-c2ccccc2)n1C,10.9
15,Nc1nc(C(F)(F)F)c(Br)c(=O)n1N,-1.14
16,COc1ccc(C2CC(c3cccs3)=NN2C(=O)CN2CCCCC2)cc1 (centres unmarked),-71.9
17,O=C1OCC/C1=C\OCCCO/C=C1\CCOC1=O,19.8
18,O=C(N/N=C/c1sc2ccccc2c1O)c1ccccc1,-6.43
19,CCOc1ccc2nc(NCCNC(=S)NCCCN(C)C)c(C#N)cc2c1,1.89
20,O=C(O)C1SCCN1S(=O)(=O)c1ccc(N=NN2CCOCC2)cc1 (centres unmarked),-1.95
21,CC(=O)Nc1ccc(NC(=O)C(C)OC(=O)/C(C#N)=C/c2ccc(N(C)C)cc2)cc1 (centres unmarked),5.39
22,O=C(c1cccs1)N1CCN(C(=O)N2CCOCC2)CC1,16.6
23,CC(OC(=O)C(C)Oc1ccccc1)C(=O)Nc1ccc(S(=O)(=O)N2CCCCC2)cc1 (centres unmarked),4.39
